# In article PMC4336329 (PLoS ONE, 2015):
# The whole screen tested about 310,000 compounds, of which about 14,000 (4.5%) showed an effect of 50% or more. Effects have a minus sign here. The list shows a part of the results.
# Target: human ether-à-go-go-related gene (hERG) potassium channel (human, UniProt Q12809)
# Test: primary screen, population patch clamp on CHO cells stably expressing hERG
# 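Further: peak tail current of the secondary pulse compared with the same well before compound.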
# Chain of human ether-à-go-go-related gene (hERG) potassium channel (Q12809 whole entry, looked up): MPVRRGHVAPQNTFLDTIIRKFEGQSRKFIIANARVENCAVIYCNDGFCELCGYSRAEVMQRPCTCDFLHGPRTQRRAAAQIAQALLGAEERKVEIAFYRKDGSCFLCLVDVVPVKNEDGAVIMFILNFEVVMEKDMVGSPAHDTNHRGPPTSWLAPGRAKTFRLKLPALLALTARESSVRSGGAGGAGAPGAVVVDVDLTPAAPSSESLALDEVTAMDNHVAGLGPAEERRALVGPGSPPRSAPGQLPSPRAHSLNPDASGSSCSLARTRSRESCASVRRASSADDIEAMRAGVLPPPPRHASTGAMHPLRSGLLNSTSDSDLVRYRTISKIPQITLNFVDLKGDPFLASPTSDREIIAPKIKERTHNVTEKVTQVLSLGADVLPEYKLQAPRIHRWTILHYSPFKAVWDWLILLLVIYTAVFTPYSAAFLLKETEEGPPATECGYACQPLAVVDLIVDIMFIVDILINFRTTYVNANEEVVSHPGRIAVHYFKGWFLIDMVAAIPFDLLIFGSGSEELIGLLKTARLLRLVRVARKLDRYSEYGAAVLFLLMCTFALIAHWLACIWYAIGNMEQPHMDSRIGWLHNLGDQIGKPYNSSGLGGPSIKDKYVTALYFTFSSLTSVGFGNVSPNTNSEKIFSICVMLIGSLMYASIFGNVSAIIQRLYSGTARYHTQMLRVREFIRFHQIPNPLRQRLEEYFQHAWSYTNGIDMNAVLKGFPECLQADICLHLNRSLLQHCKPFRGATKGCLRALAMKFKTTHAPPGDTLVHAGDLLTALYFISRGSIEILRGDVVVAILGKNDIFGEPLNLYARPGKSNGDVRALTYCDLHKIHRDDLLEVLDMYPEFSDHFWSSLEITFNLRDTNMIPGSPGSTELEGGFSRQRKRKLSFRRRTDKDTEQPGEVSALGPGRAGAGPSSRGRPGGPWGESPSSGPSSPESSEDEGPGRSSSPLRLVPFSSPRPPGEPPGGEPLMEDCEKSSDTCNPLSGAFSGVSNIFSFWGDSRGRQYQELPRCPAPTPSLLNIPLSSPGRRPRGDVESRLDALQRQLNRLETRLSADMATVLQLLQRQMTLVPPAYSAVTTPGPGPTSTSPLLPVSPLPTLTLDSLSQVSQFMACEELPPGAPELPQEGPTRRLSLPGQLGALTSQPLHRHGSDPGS
row,Compound,"hERG current change (%, negative = inhibition) at 10uM [%]"
1,COc1ccc([C@H]2CC(=O)C=C(c3ccc(Oc4ccccc4)cc3)C2)cc1OC,9.51
2,Cc1cccc(SCC(=O)Nc2ccc3c(c2)OCCO3)c1,-9.28
3,COc1ccc(C(=O)C2CCCN(C(=O)c3cc(C)on3)C2)cc1F (stereo not drawn),-6.98
4,Cc1ccc(-n2c(/C=C/c3ccc4c(c3)OCO4)nc3ccccc3c2=O)cc1,-50.4
5,CC(C)S(=O)(=O)c1cnc(N2CCOCC2)nc1N,11.4
6,COc1ccccc1-c1coc2c(CN(C)C)c(O)ccc2c1=O,8.09
7,Cl.O=C(CN1CCN(Cc2ccccc2)CC1)N1CCCc2ccccc21.O=C(O)C(=O)O,-13.5
8,Fc1ccccc1/C=N/n1c(-c2cccnc2)n[nH]c1=S,18.5
9,Cc1cc(C)c(C#N)c(Oc2ccc(F)cc2)n1,-2.14
10,c1ccc(Oc2c3ccccc3nc3ccccc23)cc1,13.1
11,Cc1ccc(NC(=O)c2ccc3snnc3c2)cc1C,14.8
12,CCC(Sc1nc(-c2ccccc2)c(-c2ccccc2)[nH]1)C(=O)O (stereo not drawn),53.2
13,CC1CCCC(NC(=O)Cn2cc(C(F)(F)F)cc(Cl)c2=O)C1C (stereo not drawn),15.6
14,CC(=O)Nc1ccc(NS(=O)(=O)c2ccccc2)cc1,17.1
15,O=C(CSc1nnc(NCc2ccccc2)s1)c1ccco1,-24.3
16,COc1cccc(CC2(CO)CCN(Cc3cnc(N4CCOCC4)s3)CC2)c1,-54.7
17,CCN(c1ccccc1)S(=O)(=O)c1ccc(OC)c(N=N/C(C(=O)Nc2ccccc2)=C(/C)O)c1,-11.5
18,Cc1cccc([C@@H]2[C@@H]3C(=O)N(Cc4ccccc4)C(=O)[C@@H]3[C@]3(Cc4ccc(Cl)cc4)C(=O)N(c4ccccc4)C(=O)N23)c1,-25.3
19,O=C(CCS(=O)(=O)c1ccc(Cl)cc1)Nc1nnc(-c2cccs2)o1,-1.53
20,CCCCN(C(=O)CSc1nnnn1C)C1CCS(=O)(=O)C1 (stereo not drawn),-28.1
21,S=C1NCN(Cc2cccnc2)CN1c1cccc2ccccc12,5.57
22,COc1ccc(C(=O)NCc2ccccc2)cc1Br,7.97

row,Compound,"hERG current change (%, negative = inhibition) at 10uM [%]"
1,OCc1nc2c(ccc3ccccc32)[nH]1,5.35
2,CCc1nnc(NC(=O)CSc2nnc(COc3ccc(C#N)cc3)n2-c2ccccc2)s1,3.13
3,Cc1cccc(-c2nnc(SCC(=O)c3ccc(O)cc3O)n2C)c1,14.4
4,O=C(Nc1ncccn1)C1CCCCC1,17
5,Cc1ccc(NC(=O)CN(C)C(=O)CNC(=O)c2ccc3c(c2)OCO3)cc1,3.73
6,COC(=O)C1=C(c2ccccc2OCc2ccccc2)C[C@@H]2CC[C@H]1N2C(=O)NCc1cccc(C(F)(F)F)c1,1.18
7,Clc1ccc(SCCOCCN2CCCCCC2)cc1.O=C(O)C(=O)O,-73.3
8,CCOC(=O)C1CCCN(C(=O)c2cc3nc(-c4cccc(OC)c4)cc(C(F)(F)F)n3n2)C1 (stereo not drawn),-25.3
9,COc1ccc(Br)cc1/C=N/NC(=O)c1ccc(COc2ccc3c(c2)CCC3)o1,21.9
10,COc1cccc(CNc2ccc(S(N)(=O)=O)cc2)c1OC,-8.94
11,Cc1ccc(S(=O)(=O)C2(C(=O)Nc3ccc(Br)cc3)CC2)cc1,-7.69
12,Br.CN(C)C1=NCC(CSC(=N)N)S1 (stereo not drawn),36.9
13,O=C(N/N=C/c1ccc[nH]1)c1ccccc1OCc1ccc(F)cc1,-0.33
14,Cc1ccc(S(=O)(=O)/N=C2\C(=O)c3ccccc3C([O-])=C2n2cc[n+](CCC(C)C)c2)cc1,-8.73
15,CC(CN1CCCC1)OC(=O)Cc1ccc(Cl)cc1.Cl (stereo not drawn),-8.89
16,Cc1cc(Nc2ccccc2)n(-c2ccccc2)n1,-14.5
17,CCN(CC)CCCC(C)NC1=NCCCCC1 (stereo not drawn),2.82
18,COc1ccc2c(Cn3cnc4cc([N+](=O)[O-])ccc4c3=O)cc(=O)oc2c1,-5.58
19,CCOC(=O)C1CCCN(CC(=O)Nc2c(C(=O)OC)[nH]c3ccc(Br)cc23)C1 (stereo not drawn),-30.9
20,CC(C)C(NC(=O)c1c(F)cccc1F)C(=O)N1CCN(S(=O)(=O)c2ccc(F)cc2)CC1 (stereo not drawn),-12.3
21,CCOC(=O)c1c(S(=O)(=O)N2CCN(Cc3ccccc3)CC2)c(C)n(C)c1C,-6.19
22,NC(=O)C1(N2CCCCC2)CCN(C(=S)Nc2cccc(Cl)c2)CC1,9.34

row,Compound,"hERG current change (%, negative = inhibition) at 10uM [%]"
1,CCOC(=O)Cc1csc(SCC(=O)Nc2oc(C)c3c(C)n[nH]c(=O)c23)n1,-10.9
2,FC(F)(F)c1cccc(Cc2noc(CN3C[C@@H]4CCC[C@H]3C4)n2)c1,-19
3,Cc1cc(C(=O)OCC(=O)NC(C)(C)C)c2ccccc2n1,-3.4
4,O=C(COC(=O)c1ccc2c(c1)OCCO2)Nc1cc(Cl)ccc1Cl,16.7
5,CCCN(Cc1nnc(-c2ccccc2Cl)o1)C(=O)c1ccc(C)c(S(=O)(=O)N2CCOCC2)c1,-55.8
6,CCOc1ccc(/C=N/OC(C)C(=O)NCc2ccc3c(c2)OCO3)cc1 (stereo not drawn),-10.3
7,Cc1cc(C)c(-c2cc(NC(=O)CSc3nncn3C)n(-c3ccccc3)n2)cc1C,-34.4
8,O=C(COC(=O)Cc1ccsc1)Nc1ccc(Br)cc1F,14.8
9,CCC(Sc1nc(C)cc(=O)[nH]1)C(=O)Nc1sc2c(c1C#N)CCCC2 (stereo not drawn),-19.1
10,CCOC(=O)N1CCN(Cc2ccc3c(c2)OCO3)CC1,8.58
11,CCC1=Nc2cc(C(=O)NCCN3CCOCC3)ccc2Sc2ccccc21,-15.3
12,COc1ccc(S(=O)(=O)N(C)CC(=O)N2CCCCCC2)cc1OC,8.53
13,Cc1cc(/C=C2\SC(N)=NC2=O)c(C)n1-c1ccc(F)cc1,22.8
14,CCCCN(C)C(=O)c1nc2ccccn2c1CN1CCN(c2cnccn2)CC1,-12.4
15,COc1ccc(C)cc1S(=O)(=O)N1CCC(C(=O)NCCc2ccccc2)CC1,-4.2
16,CCCCOc1ccc(C(=O)NCC2(c3ccccc3)CCOCC2)cc1,-42.4
17,COc1ccc(C2OC(=O)c3ccccc3S2)cc1 (stereo not drawn),19.6
18,O=c1[nH]c(CSc2nnc(NCCCN3CCOCC3)s2)nc2cc(Cl)ccc12,1.02
19,Cc1cccc(N2C(N)=C(C#N)C(C#N)(C#N)C2c2ccccc2)c1 (stereo not drawn),-2.39
20,COc1ccccc1N1CCN(S(=O)(=O)c2ccc(-n3cnnn3)cc2)CC1,-72
21,COc1ccc(CNC(=O)CSc2nnnn2C)cc1OC,20.7
22,CCNc1nc(OCC)nc(N2CCC(Cc3ccccc3)CC2)n1,13.3

row,Compound,"hERG current change (%, negative = inhibition) at 10uM [%]"
1,COc1ccc(CC(=O)Nc2ccccc2Oc2ccccc2)cc1,-4.21
2,COc1ccc(C(=O)CSc2nnc(CNC(=O)c3ccc(S(=O)(=O)N(C)C)cc3)o2)cc1,4.22
3,CC(=O)Nc1ccc(S(=O)(=O)N2CCC(C(=O)c3ccc(Cl)cc3)CC2)cc1,-6.83
4,O=C1CNC(=S)N1c1nc2ccccc2s1,21.6
5,Cc1ccc(S(=O)(=O)CCC(=O)Oc2ccc(-c3nnco3)cc2)cc1,14.3
6,CCCCOc1cccc(C(=O)NC(=S)Nc2cccc(C(F)(F)F)c2)c1,5.31
7,O=C1NCCc2c1[nH]c1c(Cl)ccc(Cl)c21,-2.58
8,COc1cc(OC)cc(-c2ncc3ccccn23)c1.O=C(O)C(=O)O,-5.52
9,CCC(=NCc1ccco1)c1c(O)n(-c2ccc(C)cc2)c(=O)[nH]c1=O,-4.19
10,CCn1c(=O)c2c(nc(SCC(=O)N3CCC(C)CC3)n2C)n(C)c1=O,-2.1
11,Cc1cccc(/C=C2/Sc3ccc(C(=O)NCCCN4CCOCC4)cc3NC2=O)c1,-25.3
12,CCOC(=O)c1[nH]c(C)c(C(=O)OC(C)C(=O)Nc2ncc(Cl)cc2Cl)c1C (stereo not drawn),-0.541
13,Cc1ccc(-c2cn(S(=O)(=O)c3ccc(C)cc3)nc2N)cc1,5.33
14,CC(C(Sc1ccccc1N)c1ccccc1)[N+](=O)[O-] (stereo not drawn),7.82
15,Cc1ccc(NC(=S)NCC2CCCO2)c(OC(F)F)c1 (stereo not drawn),-4.36
16,O=C(COc1cccc([N+](=O)[O-])c1)NN1C(=O)c2ccccc2C1=O,-5.95
17,CCC(C)Nc1nc(C)nc2c1oc1ccccc12.Cl (stereo not drawn),2.64
18,COc1c(C=O)cc2c3c1CCCN3CCC2,23.3
19,COc1ccc2[nH]c(=O)c(CN(C(=O)COc3ccccc3)C(C)C)cc2c1,-10.6
20,COCCNC(=O)[C@@H]1CCCN1C(=O)C1CCN(S(=O)(=O)c2ccc(C)cc2)CC1,2.72
21,Cn1c(=O)n(CC(=O)N2CCN(c3nnc(-c4ccccc4)c4ccccc34)CC2)c2ccccc21,-56
